Results as given in PubChem BioAssay AID485281 (National Center for Advancing Translational Sciences (NCATS), 2010).
In all, about 350,000 compounds went through this assay and about 260 (0.074%) were called active. The inconclusive results got no clear call from the source; some entries with a clear call stand among them for comparison. Calls come from the whole dose curve; as a rule, active = well fitted inhibition curve with a large enough effect; inconclusive = small, poorly fitted or top-dose-only effect; inactive = no such curve, though single readings can be large or run the other way. Where the call is inconclusive, the potency comes from a doubtful curve fit.

Biological target: Ferritin light chain (Equus caballus) (UniProt P02791)
Experiment: qHTS Assay for Identification of Novel General Anesthetics; note: nearly all actives have a fitted effect of over 20% in size
Conditions: apoferritin/1-aminoanthracene competitive binding, fluorescence; activity change, negative = displacement: at 77.5 µM (top of the series)
In short: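 Horse-spleen apoferritin (10 uM) was mixed with 50% saturated 1-aminoanthracene in PBS, exposed to compounds for 10 min at room temperature, and read for fluorescence (ex 380 nm, em 535 nm). Competitive displacement was fitted with a four-parameter Hill equation.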
% is set by controls: 0 for no effect and ±100 for the full control effect; potency is the fitted concentration of half-maximal effect; tags give direction and shape of the fitted curve.

UniProt P02791, sequence (P02791 whole entry, looked up): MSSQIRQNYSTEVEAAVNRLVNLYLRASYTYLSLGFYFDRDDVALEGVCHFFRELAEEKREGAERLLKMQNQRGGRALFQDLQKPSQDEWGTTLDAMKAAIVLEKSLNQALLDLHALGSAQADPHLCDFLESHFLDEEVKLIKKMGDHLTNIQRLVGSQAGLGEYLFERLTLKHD

Row | Compound | activity change, negative = displacement | Potency
1 | COc1ccc(NC(=O)c2cc3ccccc3o2)c(OC)c1 | inactive: 125% | 
2 | Cc1ncn(C23CC4CC(CC(C4)C2)C3)n1 |  | inconclusive: 14.1 µM [inhibitor, partial curve]
3 | Brc1ccc(N/N=C(/N=Nc2nn[nH]n2)c2ccccc2)cc1 |  | inconclusive: 22.4 µM [inhibitor, partial curve]
4 | COC(=O)c1cccc(Cn2c(Cl)c(/C=N/NC(=O)c3ccccc3Cl)sc2=O)c1 |  | inconclusive: 10 µM [inhibitor, partial curve]
5 | C/C(=N\N=C(/N)SC1CC(=O)N(c2cccc(Cl)c2)C1=O)c1cccs1 (configuration not stated) |  | inconclusive: 14.1 µM [inhibitor, partial curve]
6 | COCC(=O)n1nc(-c2ccco2)nc1NCc1ccccc1Cl | inactive: -2.62% | 
7 | CN(C)CCCNC(=S)NCC(c1ccc(Cl)cc1Cl)c1c[nH]c2ccccc12 (configuration not stated) | inactive: 4.21% | 
8 | Cc1cc(NC(=O)CSc2nnc(-c3ccccc3)c(-c3ccccc3)n2)no1 |  | inconclusive: 7.08 µM [inhibitor, partial curve]
9 | Cc1ccc(C)c(S(=O)(=O)N2CCC3(CC2)OCCO3)c1 | inactive: -9.34% | 
10 | O=C(Cn1nc(-c2ccc(Cl)cc2)c2ccccc2c1=O)NCC1CCCO1 (configuration not stated) |  | inconclusive: 4.47 µM [inhibitor, full curve]
11 | COc1cccc(/C=C2\SC(=S)N(NS(=O)(=O)c3ccccc3)C2=O)c1OC |  | inconclusive: 31.6 µM [inhibitor, single point]
12 | CCOC(=O)C1=C(N)Oc2c(oc(CO)cc2=O)C1c1c(F)cccc1Cl (configuration not stated) |  | inconclusive: 35.5 µM [inhibitor, partial curve]
13 | CCOC(=O)C1=C(SCC(=O)Nc2ccccc2)NC(=O)C(C#N)C12CCCCC2 (configuration not stated) |  | inconclusive: 39.8 µM [inhibitor, partial curve]
14 | Cc1ccc(CC(=O)Nc2cccc(C)n2)cc1 | inactive: -15.8% | 
15 | COc1ccc(S(=O)(=O)N2CCC(C(=O)Nc3ccccc3C)CC2)c2cccnc12 |  | inconclusive: 50.1 µM [inhibitor, single point]
16 | O=C(Nc1ccc2ncccc2c1)c1cc(Cl)ccc1Cl | inactive: -10.9% | 
17 | O=C(Cc1csc(Nc2nc(=S)[nH]c3ccccc23)n1)NCc1ccc(Cl)cc1 | inactive: -22.3% | 
18 | COc1ccccc1C(=O)Oc1cc(N)n(S(=O)(=O)c2ccc(C)cc2)n1 |  | inconclusive: 12.6 µM [inhibitor, full curve, poor fit]
19 | Cc1nn(-c2cccc(C(F)(F)F)c2)c(Cl)c1/C=N/n1cnnc1 |  | inconclusive: 35.5 µM [inhibitor, partial curve]
20 | O=c1[nH]c2ccccc2c(=O)n1Cc1ccccc1 |  | inconclusive: 39.8 µM [inhibitor, single point]
21 | O=[N+]([O-])c1cc2c(cc1CN1CCN(c3ccc(F)cc3)CC1)OCO2 |  | inconclusive: 35.5 µM [inhibitor, single point]
22 | CCCc1nc(Cl)c(C#N)c2c1CCCC2 | inactive: 0.131% | 
23 | O=C(COC(=O)c1cccnc1Cl)c1ccc(F)cc1 |  | inconclusive: 35.5 µM [inhibitor, single point]

Row | Compound | activity change, negative = displacement | Potency
24 | Cc1nc(C(F)(F)F)c(C(=O)N/N=C(\N)c2ccccn2)s1 | inactive: -1.5% | 
25 | COc1ccccc1CNC(=O)c1ccc2[nH]c(C)c(C)c2c1 |  | inconclusive: 5.01 µM [inhibitor, full curve, poor fit]
26 | O=C1/C(=N\S(=O)(=O)c2cccs2)C([n+]2ccc(CCCc3ccccc3)cc2)=C([O-])c2ccccc21 |  | inconclusive: 44.7 µM [inhibitor, single point]
27 | COc1ccc(OC)c(-c2cc(C3CCN(c4ncccc4[N+](=O)[O-])CC3)[nH]n2)c1 |  | inconclusive: 15.8 µM [inhibitor, partial curve]
28 | O=C(N/N=C/c1ccncc1)C12CC3CC(CC(C3)C1)C2 |  | inconclusive: 25.1 µM [inhibitor, single point]
29 | COc1ccccc1NC(=O)Nc1nnc(C(C)c2ccccc2)s1 (configuration not stated) |  | inconclusive: 31.6 µM [inhibitor, partial curve]
30 | COc1ccc(C(=O)/C=C/C(=O)N(CC(=O)NCCC(C)C)Cc2cccs2)c(O)c1 |  | inconclusive: 39.8 µM [inhibitor, single point]
31 | CCOC(=O)Cn1c(=N)n(CCOc2ccc(F)cc2)c2ccccc21 | inactive: -8.81% | 
32 | Cc1cc(C)n2nc(CNC(=O)c3c(F)cccc3F)nc2n1 | inactive: -1.64% | 
33 | COc1ccccc1CNn1c(-c2cccc(C)c2)nc2ccccc2c1=O |  | inconclusive: 20 µM [inhibitor, partial curve]
34 | Cc1ccc(-c2nnc(NC(=O)Cc3ccc(F)cc3)o2)c(C)c1 | inactive: -2.61% | 
35 | COc1ccc(C(=O)/C(=C/N(C)C)S(=O)(=O)c2ccccc2)cc1 | inactive: -11.4% | 
36 | Cc1oc(-c2ccccc2F)nc1CS(=O)CC(=O)NC1CCCC1 (configuration not stated) | inactive: -11.5% | 
37 | Cc1ccc(C(=O)N/C(=C\c2ccc(-c3cc(Cl)ccc3Cl)o2)C(=O)NCc2cccnc2)cc1 |  | inconclusive: 31.6 µM [inhibitor, single point]
38 | CC12CCC(C/C1=N/O)C2(C)C (configuration not stated) |  | inconclusive: 39.8 µM [inhibitor, single point]
39 | CCC(C)NC(=O)CSc1nnc(-c2cc(-c3cccs3)nc3ccccc23)o1 (configuration not stated) | inactive: -7.63% | 
40 | CCOC(=O)c1c(C)[nH]c(C(=O)CN2C(=O)NC(CC)(c3ccccc3)C2=O)c1C (configuration not stated) |  | inconclusive: 28.2 µM [inhibitor, partial curve]
41 | CCn1c(=O)cc(OCC(=O)N2CCN(c3ccc(C)cc3)C(C)C2)c2ccccc21 (configuration not stated) | inactive: -7.24% | 
42 | Nc1cc(Oc2ccc(F)cc2F)cc([N+](=O)[O-])c1 |  | inconclusive: 14.1 µM [inhibitor, partial curve]
43 | COc1ccc(C(=O)Nc2ccc(Cl)cc2C(=O)N2CCCC(C)C2)cc1 (configuration not stated) |  | inconclusive: 39.8 µM [inhibitor, single point]
44 | O=C(CCCN1C(=O)/C(=C/c2ccccc2Cl)SC1=S)N1CCCC1 |  | inconclusive: 31.6 µM [inhibitor, partial curve]
45 | Cc1ccc(CNC(=O)c2ccc(C#CC(C)(C)O)s2)cc1 |  | inconclusive: 11.2 µM [inhibitor, full curve, poor fit]
46 | CCc1nnc(NC(=O)CSc2ccc(-c3nc4ccccc4[nH]3)cn2)s1 |  | inconclusive: 8.91 µM [inhibitor, partial curve]

Row | Compound | activity change, negative = displacement | Potency
47 | CC#CCN(CC#CC)S(=O)(=O)c1ccc(S(=O)(=O)N2CCOCC2)cc1 |  | inconclusive: 31.6 µM [inhibitor, single point]
48 | COc1ccc2c(c1)c(=O)c(S(=O)(=O)c1ccc(F)cc1)cn2Cc1ccccc1Cl |  | inconclusive: 10 µM [inhibitor, full curve, poor fit]
49 | O=[N+]([O-])c1ccccc1OCc1nc(-c2cccs2)no1 |  | inconclusive: 31.6 µM [inhibitor, partial curve]
50 | CCOC(=O)N1CCC(N2Cc3cccc(C(=O)NCC4CCN(CC(C)C)C4)c3C2=O)CC1 (configuration not stated) |  | inconclusive: 39.8 µM [inhibitor, single point]
51 | COC(=O)C1=C(C)N(Cc2ccccc2)C(=NCc2ccco2)N[C@H]1c1ccc(Br)cc1 |  | inconclusive: 14.1 µM [inhibitor, partial curve]
52 | CCOC(=O)C1CCN(C(=O)CCS(=O)(=O)c2ccc3c(c2)CCN3C(=O)CC)CC1 | inactive: -3.08% | 
53 | Nn1c(Cc2ccccc2)nc2cc(Cl)ccc2c1=O |  | inconclusive: 35.5 µM [inhibitor, single point]
54 | COc1ccc(/C=C/C(=O)NC(C)CCc2ccccc2)cc1OC (configuration not stated) |  | inconclusive: 35.5 µM [inhibitor, single point]
55 | Cc1ccc2c(CC(=O)OCn3nnc4ccccc4c3=O)coc2c1 |  | inconclusive: 39.8 µM [inhibitor, partial curve]
56 | O=C(NCc1ccc(Cl)cc1)c1ccc(Cn2cc(C(F)(F)F)ccc2=O)cc1 |  | inconclusive: 17.8 µM [inhibitor, partial curve]
57 | O=C(Nc1ccc(N2CCCCC2)cc1)C(Cl)c1ccccc1 (configuration not stated) |  | inconclusive: 22.4 µM [inhibitor, partial curve]
58 | Cc1ccc(NC(=O)COC(=O)/C=C/c2ccc(Br)o2)cc1S(=O)(=O)N(C)C |  | inconclusive: 12.6 µM [inhibitor, partial curve]
59 | COc1cccc(Cn2c(=O)n(-c3cccc(Cl)c3)c(=O)c3c4c(sc32)CN(C(C)=O)CC4)c1 |  | inconclusive: 3.98 µM [inhibitor, full curve]
60 | CSC1=NC(C)(C)C=C(/C=C/c2ccc(Cl)cc2)N1 |  | inconclusive: 25.1 µM [inhibitor, single point]
61 | COc1cc(NC(=O)CN(C)S(=O)(=O)c2ccc(-c3ccc(=O)[nH]n3)s2)cc(OC)c1 | inconclusive: -26.2% [inhibitor] | 
62 | CC(NC(=S)Nc1ccccc1OC(F)F)C(C)(C)C (configuration not stated) |  | inconclusive: 31.6 µM [inhibitor, partial curve]
63 | Cc1cc(OCc2cc(C(=O)NCCN3CCCCC3CO)no2)cc(C)c1Cl (configuration not stated) |  | inconclusive: 50.1 µM [inhibitor, single point]
64 | CCN(CC)c1ccc(C2N(C(=O)N3CCOCC3)CCN2S(=O)(=O)c2ccc(C)cc2)cc1 (configuration not stated) |  | inconclusive: 35.5 µM [inhibitor, single point]
65 | O=C(COC(=O)C1CCN(S(=O)(=O)c2cccc3cccnc23)CC1)c1ccc(F)cc1 |  | inconclusive: 17.8 µM [inhibitor, partial curve]
66 | Cc1ccc(NC(=O)c2oc3ccccc3c2NC(=O)Cc2ccccc2)cc1 | inactive: 0.268% | 
67 | Nc1nnc(COc2ccc(Br)cc2Br)s1 |  | inconclusive: 3.98 µM [inhibitor, partial curve, poor fit]
